Source: PMC4336329 (PLoS ONE, 2015)
The campaign covered roughly 310,000 compounds. About 14,000 (4.5%) showed an effect of 50% or more. Effects have a minus sign here. The list shows a part of the results.

Target: human ether-à-go-go-related gene (hERG) potassium channel (human, UniProt Q12809)
Test: primary screen, population patch clamp on CHO cells stably expressing hERG
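Further: peak tail current of the secondary pulse compared with the same well before compound.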

human ether-à-go-go-related gene (hERG) potassium channel, sequence (Q12809 whole entry, looked up): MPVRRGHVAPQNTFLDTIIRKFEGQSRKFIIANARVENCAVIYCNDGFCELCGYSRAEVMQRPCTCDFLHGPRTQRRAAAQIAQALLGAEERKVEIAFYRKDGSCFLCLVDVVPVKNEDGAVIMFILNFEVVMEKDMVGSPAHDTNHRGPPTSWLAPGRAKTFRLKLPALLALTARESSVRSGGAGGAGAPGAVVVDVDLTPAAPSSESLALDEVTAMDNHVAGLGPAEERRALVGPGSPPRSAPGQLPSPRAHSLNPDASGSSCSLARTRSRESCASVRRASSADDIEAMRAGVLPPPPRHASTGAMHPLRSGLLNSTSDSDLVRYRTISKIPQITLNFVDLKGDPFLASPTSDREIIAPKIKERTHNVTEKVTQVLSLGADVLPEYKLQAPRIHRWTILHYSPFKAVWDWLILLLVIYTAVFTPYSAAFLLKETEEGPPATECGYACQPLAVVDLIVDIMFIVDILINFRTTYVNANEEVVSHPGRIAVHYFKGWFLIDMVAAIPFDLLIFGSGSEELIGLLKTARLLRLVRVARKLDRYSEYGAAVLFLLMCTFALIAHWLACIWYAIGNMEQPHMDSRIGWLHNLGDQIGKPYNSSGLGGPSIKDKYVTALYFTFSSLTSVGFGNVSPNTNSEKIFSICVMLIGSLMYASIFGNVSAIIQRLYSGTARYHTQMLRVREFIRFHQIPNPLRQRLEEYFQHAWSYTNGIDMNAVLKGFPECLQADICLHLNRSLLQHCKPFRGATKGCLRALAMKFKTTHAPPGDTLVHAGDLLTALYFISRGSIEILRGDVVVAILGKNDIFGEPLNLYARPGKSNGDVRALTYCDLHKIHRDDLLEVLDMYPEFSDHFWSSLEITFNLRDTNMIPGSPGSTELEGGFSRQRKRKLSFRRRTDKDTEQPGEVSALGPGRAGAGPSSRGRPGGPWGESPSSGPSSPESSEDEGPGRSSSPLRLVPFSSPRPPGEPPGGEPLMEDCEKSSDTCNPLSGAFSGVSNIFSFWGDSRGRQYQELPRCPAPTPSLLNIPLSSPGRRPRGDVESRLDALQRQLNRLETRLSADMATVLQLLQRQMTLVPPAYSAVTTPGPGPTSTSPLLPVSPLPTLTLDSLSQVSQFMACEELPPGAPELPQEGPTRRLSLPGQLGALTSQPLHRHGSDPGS

| SMILES | hERG current change (%, negative = inhibition) at 10uM |
| --- | --- |
| COC(=O)Cn1c(=NC(=O)CSCC(=O)Nc2cc(C)on2)sc2ccccc21 | 14.6% |
| CC(C)CC(CO)N1CCN(C(=O)c2ccccc2)CCC1=O (stereo not drawn) | 4.64% |
| CN1C(=O)NC(NC(=O)c2cccs2)(C(F)(F)F)C1=O (stereo not drawn) | 9.22% |
| Cc1cccc(Cc2nnc(CCC(=O)NCc3cnc4ccccn34)o2)c1 | 8.6% |
| c1ccc(CSc2ncnc3c2oc2ccccc23)cc1 | 8.6% |
| CCCCCCSc1ccc([C@@H]2[C@H]3C(=O)N(C)C(=O)[C@H]3[C@]3(C(=O)OC)CCCCN23)cc1OC.O=C(O)C(F)(F)F | -9.82% |
| CCCCCC(=O)Nc1ccc(S(=O)(=O)NC2=NCCCCC2)cc1 | -1.68% |
| CN(C1CC(C)(C)N(O)C(C)(C)C1)S(=O)(=O)CC12CCC(CC1=O)C2(C)C.Cl (stereo not drawn) | 21.8% |
| Cc1nc(CN(C)Cc2nc(Cc3ccccc3Cl)no2)cs1 | -7.91% |
| COc1ccc(/C=C2/C(=O)N(c3ccccc3)N=C2C)cc1Br | 21.9% |
| Cc1nc(-c2cn[nH]c2)c2cc(C)oc2n1 | 9.4% |
| C=CCOC(=O)C1=C(C)N=C2SCCC(=O)N2C1c1ccc(OC(=O)c2ccco2)cc1 (stereo not drawn) | -14.6% |
| CN(C)/C=C/C(=O)Oc1ccc(Cl)cc1Cl | -4.2% |
| O=C(NCc1ccc2c(c1)OCO2)C1CCCN1C(=O)Nc1ccc(Cl)cc1 (stereo not drawn) | -17.4% |
| COc1cc(NC(=O)CN2C(=O)c3ccccc3S2(=O)=O)c(OC)cc1Cl.Cl | 11.6% |
| COc1ccccc1/C=C/C=C1\Oc2c(ccc(O)c2CN2CCN(CCO)CC2)C1=O | 0.369% |
| Br.C=CCN1C(c2ccc(OCC)cc2)=CS/C1=C(\C#N)c1nnc2n1CCCCC2 | -37.9% |
| Cc1ccc2c(C)ccc(O)c2n1 | 5.84% |
| CCS(=O)(=O)Nc1ccccc1C(N)=O | 27.4% |

| SMILES | hERG current change (%, negative = inhibition) at 10uM |
| --- | --- |
| COC(=O)C(C)Nc1cccc(Br)c1 (stereo not drawn) | -3.22% |
| Cc1ccc(C(=O)Nc2nnc(S(=O)(=O)N3CCCCCC3)s2)cc1 | 3.08% |
| N#CC1=C(N)Oc2cc3ccccc3cc2C1c1cccs1 (stereo not drawn) | 20% |
| Cc1cc(=O)[nH]c2nnnn12 | 4.44% |
| CCOc1ccc2[nH]c(=O)c(CN(CCCN3CCOCC3)Cc3nnnn3Cc3ccc(OC)cc3)cc2c1 | -60.9% |
| CC(=NCc1ccco1)c1c(C(F)(F)F)[nH]n(-c2nc3ccccc3s2)c1=O | -4.48% |
| COc1ccc(OC)c(S(=O)(=O)N2c3cc(F)ccc3CCC2C)c1 (stereo not drawn) | 4.48% |
| O=C(O)CN1C(=O)/C(=C\c2ccccc2OCc2ccc(Cl)cc2)SC1=S | 15.3% |
| Cc1ccc(C(=O)NCC(=O)NCC(c2cccs2)N2CCOCC2)cc1C (stereo not drawn) | -1.92% |
| CCOC(=O)C1=C(C)Nc2ncnn2C1c1ccc(N(C)C)cc1 (stereo not drawn) | 0.716% |
| O=S(=O)(Nc1ccon1)c1ccc(Br)cc1 | 10.7% |
| Cc1cccc(-c2nc(C#N)c(N3CCCCCC3)o2)c1 | 1.92% |
| COc1ccccc1NC(=O)Nc1cccc(NC(C)=O)c1 | 17.2% |
| O=C(CSc1nc2[nH]ncc2c(=O)[nH]1)NCc1ccc(F)cc1 | 16.7% |
| Cn1c(N)c(C(=O)CSc2nc3ccccc3[nH]2)c(=O)n(C)c1=O | -2.34% |
| O=C(C1CCC(=O)N(C2CCCC2)C1)N1CCN(c2ccc(Cl)cc2)CC1 (stereo not drawn) | -61% |
| Cc1noc(C)c1COc1ccc(C(=O)NCCc2ccc(F)cc2)cc1 | 5.6% |
| Cc1cccc(NC(=S)N2CCn3cccc3C2c2cccnc2)c1 (stereo not drawn) | -20.7% |
| O=C(O)CSc1cc(NS(=O)(=O)c2ccc(Br)cc2)c2ccccc2c1O | 20.3% |

| SMILES | hERG current change (%, negative = inhibition) at 10uM |
| --- | --- |
| CCN(CC)c1ccc(CNc2nc3ccccc3n2CCN2CCOCC2)cc1 | -79.5% |
| COc1ccc(-n2ccnc2SCC(=O)NCc2ccco2)c(OC)c1 | -0.982% |
| C[C@]12CC[C@@H]3c4ccc(O[C@@H]5O[C@H](C(=O)[O-])[C@@H](O)[C@H](O)[C@H]5O)cc4CC[C@H]3[C@@H]1C[C@@H](O)[C@@H]2O.[Na+] | 2.21% |
| CC(OC(=O)CC1CCCCC1)C(=O)Nc1ccc(F)cc1 (stereo not drawn) | -0.705% |
| COc1cccc(CNC(=O)Cn2ccc([N+](=O)[O-])n2)c1 | 22.1% |
| Cn1c(CCCCCN)nc2ccccc21 | 7.44% |
| COc1cccc(CNC(=O)Cn2nc(C)c3c(C)n(-c4ccc(C)cc4)nc3c2=O)c1OC | 15.6% |
| Cc1c(CC(=O)O)c(=O)oc2c(C)c(OCc3ccc(F)cc3Cl)ccc12 | 17.8% |
| CCCCCC(=O)Nc1cccc(S(=O)(=O)NC2=NCCC2)c1 | 11.6% |
| COc1ccccc1CN1CCNC(=O)C1CC(=O)N(C)Cc1nc(C)cs1 (stereo not drawn) | 17% |
| CCC(=NCc1cccnc1)c1c(O)n(-c2ccccc2)c(=O)[nH]c1=O | -22% |
| Cc1cccc(Nc2nnc(SCC(=O)c3ccc(O)cc3O)s2)c1 | -18.4% |
| CN1CCN(S(=O)(=O)c2ccc(NC(=O)c3ccccc3Cl)cc2)CC1 | 8.9% |
| O=C(CNC(=O)c1ccccc1)Nc1ccc(Br)cc1C(=O)c1ccccc1 | -8.15% |
| COc1ccc(C(C)=O)cc1COC(=O)c1cc(C)nc2ccccc12 | 13.6% |
| COc1ccccc1CCNC(=O)Cc1cccs1 | -8.51% |
| CCN(Cc1cc(=O)n2ccsc2n1)c1cccc2ccccc12 | -3.5% |
| O=C(CSc1ccc(F)cc1)Nc1ccccc1N1CCOCC1 | -8.48% |
| Cc1csc(NC(=O)C2CCCN(S(=O)(=O)c3cnc[nH]3)C2)n1 (stereo not drawn) | 11.6% |
